Laboratory results: the antibiotic and cytotoxicity screens of Wong et al. (2023)
This is one part of the list.

Assays:
HSkMC = human skeletal muscle cells; test: cytotoxicity call (relative viability < 0.9); conditions: 10 µM
HepG2 = test: cytotoxicity call (relative viability < 0.9); conditions: 10 µM
S. aureus RN4220 = test: growth inhibition call (relative growth <= 0.2); conditions: 50 µM

COc1ccc(S(=O)(=O)N(C)C[C@H]2OCCCC[C@H](C)Oc3ccc(NC(=O)Nc4c(C)noc4C)cc3C(=O)N([C@H](C)CO)C[C@H]2C)cc1
inactive: cytotoxicity call (HSkMC) | cytotoxicity call (HepG2) | growth inhibition call (S. aureus RN4220)

CNC[C@@H]1Oc2cc(C#CC(C)(C)O)ccc2S(=O)(=O)N([C@H](C)CO)C[C@H]1C
inactive: cytotoxicity call (HSkMC) | cytotoxicity call (HepG2) | growth inhibition call (S. aureus RN4220)

CN(Cc1ccc(/C=C/C(=O)Nc2ccc(-c3cccs3)cc2N)cc1)CC12CC3CC(CC(C3)C1)C2
inactive: cytotoxicity call (HSkMC) | cytotoxicity call (HepG2) | growth inhibition call (S. aureus RN4220)

O=C(C[C@H]1C[C@H]2c3cc(NC(=O)NC4CCCC4)ccc3O[C@H]2[C@@H](CO)O1)NCc1ccc(Oc2ccccc2)cc1
inactive: cytotoxicity call (HSkMC) | cytotoxicity call (HepG2) | growth inhibition call (S. aureus RN4220)

C[C@@H]1CN([C@H](C)CO)C(=O)Cc2cc(NS(=O)(=O)c3cccs3)ccc2O[C@H]1CN(C)S(=O)(=O)c1cn(C)cn1
inactive: cytotoxicity call (HSkMC) | cytotoxicity call (HepG2) | growth inhibition call (S. aureus RN4220)

COc1ccc(S(=O)(=O)Nc2ccc3c(c2)CC(=O)N([C@H](C)CO)C[C@H](C)[C@@H](CN(C)S(=O)(=O)c2c(C)noc2C)O3)cc1
inactive: cytotoxicity call (HSkMC) | cytotoxicity call (HepG2) | growth inhibition call (S. aureus RN4220)

Cc1noc(C)c1S(=O)(=O)Nc1ccc2c(c1)C(=O)N([C@H](C)CO)C[C@@H](C)[C@@H](CN(C)S(=O)(=O)c1cn(C)cn1)OCCCC[C@H](C)O2
inactive: cytotoxicity call (HSkMC) | cytotoxicity call (HepG2) | growth inhibition call (S. aureus RN4220)

C[C@H]1CCCCO[C@H](CN(C)S(=O)(=O)c2cccs2)[C@@H](C)CN([C@@H](C)CO)C(=O)c2cc(NC(=O)C3CCCCC3)ccc2O1
inactive: cytotoxicity call (HSkMC) | cytotoxicity call (HepG2) | growth inhibition call (S. aureus RN4220)

C[C@@H]1CCCCO[C@@H](CN(C)C(=O)c2ccccc2)[C@H](C)CN([C@H](C)CO)C(=O)c2cc(NC(=O)CCC(F)(F)F)ccc2O1
inactive: cytotoxicity call (HSkMC) | cytotoxicity call (HepG2) | growth inhibition call (S. aureus RN4220)

Cc1cccn2c(CN)cnc12
inactive: cytotoxicity call (HSkMC) | cytotoxicity call (HepG2) | growth inhibition call (S. aureus RN4220)

COc1ccc2c3c([nH]c2c1)[C@H](CO)N(C[C@]13CN(C1)S(=O)(=O)C)C(=O)C1CCOCC1
inactive: cytotoxicity call (HSkMC) | cytotoxicity call (HepG2) | growth inhibition call (S. aureus RN4220)

CN1CCN(C(=O)C[C@H]2CC[C@H]3[C@H](COc4ccc(NC(=O)c5ccc(F)c(F)c5)cc4C(=O)N3C)O2)CC1
inactive: cytotoxicity call (HSkMC) | cytotoxicity call (HepG2) | growth inhibition call (S. aureus RN4220)

C[C@H](CO)N1C[C@H](C)[C@H](CN(C)C(=O)Nc2ccc(C(F)(F)F)cc2)Oc2ccc(NS(=O)(=O)c3ccc(Cl)cc3)cc2C1=O
inactive: cytotoxicity call (HSkMC) | cytotoxicity call (HepG2) | growth inhibition call (S. aureus RN4220)

CO[C@H]1CN(C)C(=O)c2ccc(NS(=O)(=O)c3ccccc3)cc2OC[C@@H](C)N(C(=O)NC(C)C)C[C@@H]1C
inactive: cytotoxicity call (HSkMC) | cytotoxicity call (HepG2) | growth inhibition call (S. aureus RN4220)

C[C@@H]1CN([C@@H](C)CO)C(=O)CCCn2cc(nn2)CO[C@@H]1CN(C)C(=O)Nc1ccccc1C(F)(F)F
inactive: cytotoxicity call (HSkMC) | cytotoxicity call (HepG2) | growth inhibition call (S. aureus RN4220)

C[C@H]1CN([C@@H](C)CO)C(=O)c2cc(C#Cc3cccc(F)c3)cnc2O[C@H]1CN(C)CC1CCOCC1
inactive: cytotoxicity call (HSkMC) | cytotoxicity call (HepG2) | growth inhibition call (S. aureus RN4220)

C[C@@H]1CN([C@H](C)CO)C(=O)c2cc(NC(=O)NC3CCCCC3)ccc2O[C@@H]1CN(C)S(=O)(=O)c1cn(C)cn1
inactive: cytotoxicity call (HSkMC) | cytotoxicity call (HepG2) | growth inhibition call (S. aureus RN4220)

C[C@@H]1CN([C@H](C)CO)C(=O)Cc2cc(NC(=O)Nc3ccccc3)ccc2O[C@@H]1CN(C)C(=O)Nc1ccc(C(F)(F)F)cc1
inactive: cytotoxicity call (HSkMC) | cytotoxicity call (HepG2) | growth inhibition call (S. aureus RN4220)

COc1ccc(S(=O)(=O)Nc2ccc3c(c2)CC(=O)N([C@@H](C)CO)C[C@@H](C)[C@@H](CN(C)Cc2ccc(-c4ccccc4)cc2)O3)cc1
inactive: cytotoxicity call (HSkMC) | cytotoxicity call (HepG2) | growth inhibition call (S. aureus RN4220)

NCCNc1ccc([N+](=O)[O-])c(NCCO)c1
inactive: cytotoxicity call (HSkMC) | cytotoxicity call (HepG2) | growth inhibition call (S. aureus RN4220)

C[C@@H]1c2ncc(CN3CCN(C)CC3)n2CCN1S(C)(=O)=O
inactive: cytotoxicity call (HSkMC) | cytotoxicity call (HepG2) | growth inhibition call (S. aureus RN4220)

Cc1cn2nc([C@@H]3CCCCN3C(=O)c3cc(Cl)ccc3NS(C)(=O)=O)cc2nc1N1CC[C@H](N)C1
inactive: cytotoxicity call (HSkMC) | cytotoxicity call (HepG2) | growth inhibition call (S. aureus RN4220)

CCO[C@H]1OC(C(=O)N2CCOCC2)=C[C@@H](c2ccccc2)[C@@H]1CCCOC(=O)NCCCCCC(=O)NO
inactive: cytotoxicity call (HSkMC) | cytotoxicity call (HepG2) | growth inhibition call (S. aureus RN4220)

COc1ccc(-c2cnc3c(c2)C(=O)N([C@@H](C)CO)C[C@@H](C)[C@H](CN(C)S(=O)(=O)c2ccc(OC)cc2)O3)cc1
inactive: cytotoxicity call (HSkMC) | cytotoxicity call (HepG2) | growth inhibition call (S. aureus RN4220)

COCC(=O)N1CC(=O)N2[C@@H](CO)[C@@H](c3ccc(C#Cc4cccnc4)cc3)[C@@H]2C1
inactive: cytotoxicity call (HSkMC) | cytotoxicity call (HepG2) | growth inhibition call (S. aureus RN4220)
